# Laboratory results: the supplement of paper PMC8748497
# The other results are listed elsewhere or left out.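 Rule for the calls: active = GRHL reporter fold change of at least 2 over DMSO at 10 µM; inactive = below 2-fold.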 Repeats are few or missing, and single values can be far off.
# Test system: HEK293 GRHL-luciferase reporter
# Experiment: GRHL luciferase reporter activity, fold change over DMSO control; higher = stronger GRHL reporter activation
# Details: 10 µM; 24 h
# 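Note: stable HEK293 line carrying repeated GRHL consensus sites upstream of a minimal promoter driving luciferase, luminescence read 24 h post-treatment, normalized to 0.5% DMSO vehicle wells.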
row,SMILES,GRHL luciferase reporter activity
1,COc1cc(OC)c(OC)cc1C=O,inactive: 0.817
2,CCC12C=CCN3CC[C@@]4(c5ccc(OC)cc5N(C)[C@H]4[C@@](O)(C(=O)OC)[C@@H]1OC(C)=O)[C@@H]32 (stereo partly drawn),inactive: 0.916
3,CC(C)(C)NCC(O)c1ccccc1Cl (stereo not drawn),inactive: 0.972
4,C[C@@H]1O[C@@H](O[C@@H]2C=C3CC[C@@H]4[C@H](CC[C@]5(C)[C@@H](c6ccc(=O)oc6)CC[C@]45O)[C@@]3(C)CC2)[C@H](O)[C@H](O)[C@H]1O,inactive: 1.04
5,C#C[C@]1(O)C=C[C@H]2[C@@H]3CCC4=CC(=O)CC[C@@H]4[C@H]3CC[C@@]21CC,inactive: 0.823
6,Cc1cccc(Cc2c[nH]cn2)c1C,inactive: 0.937
7,C#C[C@]1(O)CC[C@H]2[C@@H]3CCC4=CC(=O)CC[C@]4(C)[C@H]3CC[C@@]21C,inactive: 1.12
8,C=CCSSCC=C,inactive: 0.997
9,CNC1CC(N)C(O)C(OC2OC(CO)C(O)C3OC4(OC(C(N)CO)C(O)C(O)C4O)OC23)C1O (stereo not drawn),inactive: 0.991
10,CN1CC[C@@]2(C)c3cc(O)ccc3N(C)[C@@H]12,inactive: 0.857
11,COc1cccc(C2(O)CCCCC2CN(C)C)c1 (stereo not drawn),inactive: 1.11
12,C=C(C)[C@H]1Cc2c(ccc3c(=O)c4c(oc23)COc2cc(OC)c(OC)cc2-4)O1,inactive: 1.04
13,C[C@H]1O[C@H](O[C@H]2[C@H](O)[C@@H](O)[C@@H](O)[C@H](O)[C@@H]2O)[C@@H](N)C[C@@H]1NC(=N)C(=O)O,inactive: 0.966
14,Nc1nc(N)nc(NC2CC2)n1,inactive: 1.04
15,CC[C@@H](C(=O)O)[C@@H]1O[C@@H]([C@@H](C)[C@H](O)[C@H](C)C(=O)[C@H](CC)[C@H]2O[C@]3(C=C[C@@H](O)[C@]4(CC[C@@](C)([C@H]5CC[C@](O)(CC)[C@H](C)O5)O4)O3)[C@H](C)C[C@@H]2C)[C@@H](C)C[C@@H]1C,inactive: 1.18
16,C[C@@]12C(=O)OC(=O)[C@]1(C)[C@H]1CC[C@@H]2O1,inactive: 0.00729
17,CCSCC[C@H](N)C(=O)O,inactive: 0.872
18,Clc1ccc(C(OCCN2CCCCC2)c2ccccc2)cc1 (stereo not drawn),inactive: 0.374
19,C=CCC1(C(C)CCC)C(=O)NC(=S)NC1=O (stereo not drawn),inactive: 1.1

row,SMILES,GRHL luciferase reporter activity
1,OC[C@@H]1CCCN2CCCC[C@H]12,inactive: 0.946
2,CN1C[C@H](C(=O)N[C@]2(C)O[C@@]3(O)[C@@H]4CCCN4C(=O)[C@H](Cc4ccccc4)N3C2=O)C[C@@H]2c3cccc4[nH]cc(c34)C[C@H]21,inactive: 1.05
3,COc1cc2c(cc1OC)[C@@H]1C(=O)c3ccc4oc(C(C)C)cc4c3O[C@@H]1CO2,active: 8.9
4,COc1ccc2c(c1)[nH]c1c(C)nccc12,inactive: 0.348
5,OCC(Br)(Br)Br,inactive: 1.23
6,CC(O)(CS(=O)(=O)c1ccc(F)cc1)C(=O)Nc1ccc(C#N)c(C(F)(F)F)c1 (stereo not drawn),inactive: 1
7,COc1cc([C@@H]2c3cc4c(cc3[C@H](OC(C)=O)[C@H]3COC(=O)[C@@H]23)OCO4)cc(OC)c1OC,inactive: 1.02
8,C[N+]1(C)CCOC(O)(c2ccc(-c3ccc(C4(O)C[N+](C)(C)CCO4)cc3)cc2)C1 (stereo not drawn),inactive: 0.975
9,O=C(N/N=C/c1ccc([N+](=O)[O-])o1)c1cc([N+](=O)[O-])cc([N+](=O)[O-])c1O,inactive: 1.86
10,COc1cc2c(cc1OC)[C@@H]1C(=O)c3ccc4c(c3O[C@@H]1CO2)CC(C(C)C)O4 (stereo partly drawn),active: 4.02
11,C[C@@H](N)[C@@H](O)c1ccccc1,inactive: 0.884
12,O=C(O)CC[N+](=O)[O-],inactive: 1.01
13,c1ccc2c(c1)sc1ccccc12,inactive: 1.47
14,CC[C@@]1(O)C(=O)OCc2c1cc1n(c2=O)Cc2cc3ccccc3nc2-1,inactive: 0.124
15,Cc1ncc(CNC(=O)N(CCCl)N=O)c(N)n1,inactive: 1.05
16,COc1cc2occc2c2oc(=O)ccc12,inactive: 1.79
17,O=[N+]([O-])O[C@H]1CO[C@H]2[C@@H]1OC[C@H]2O[N+](=O)[O-],inactive: 1.24
18,C/C=C(\C)C(=O)O[C@H]1C[C@@H](OC(C)=O)[C@@]2(C(=O)OC)CO[C@H]3[C@@H](O)[C@@](C)([C@]45O[C@@]4(C)[C@H]4C[C@@H]5O[C@@H]5OC=C[C@@]54O)[C@H]4[C@]1(CO[C@]4(O)C(=O)OC)[C@@H]32,inactive: 1.29
19,O=[N+]([O-])c1ccc(O)c([N+](=O)[O-])c1,inactive: 1.73
